The supplement of paper PMC3334620
Whole data set: some 33,000 sequences, median “E-score (-0.5 to 0.5)” near -0.016, cut for the highest 2% near 0.32. This is one part of the list.

Biological target: T1, Stp1 (UniProt B3LFK1)
T1 sequence: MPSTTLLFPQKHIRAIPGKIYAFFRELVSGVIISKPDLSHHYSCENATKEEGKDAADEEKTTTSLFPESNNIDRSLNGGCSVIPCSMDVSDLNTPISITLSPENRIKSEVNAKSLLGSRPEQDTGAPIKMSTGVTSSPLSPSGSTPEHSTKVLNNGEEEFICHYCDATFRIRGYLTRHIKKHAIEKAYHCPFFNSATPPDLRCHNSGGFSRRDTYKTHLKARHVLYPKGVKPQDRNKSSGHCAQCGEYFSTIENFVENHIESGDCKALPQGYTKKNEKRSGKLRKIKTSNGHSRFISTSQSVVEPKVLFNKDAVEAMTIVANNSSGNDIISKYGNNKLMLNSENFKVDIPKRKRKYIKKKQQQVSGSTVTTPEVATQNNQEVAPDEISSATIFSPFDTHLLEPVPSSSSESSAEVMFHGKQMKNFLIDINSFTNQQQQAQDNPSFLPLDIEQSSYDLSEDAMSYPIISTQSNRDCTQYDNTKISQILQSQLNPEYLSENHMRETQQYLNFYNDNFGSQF
Assay: PBM E-score (8-mer binding enrichment) (E-score (-0.5 to 0.5)); higher = stronger / more preferred TF binding; most listed sequences are background and not binding sites
Settings: protein concentration: 200 nM; construct: GST-full length
How it was run: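 PURExpress in vitro transcription/translation supplied GST-tagged yeast transcription factors, either full-length or DNA-binding domain. Applied at about 100-200 nM to universal all-10-mer Agilent arrays double-stranded by primer extension, the bound protein was detected with fluorescent anti-GST. E-scores, modified Wilcoxon-Mann-Whitney statistics, were given by the Universal PBM Analysis Suite to ungapped eight-base words pooled with their reverse complements after masliner normalisation.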

Sequence	PBM E-score
ATCAACCG	-0.0921
ACAGAGGG	-0.176
TGTCTGAA	0.119
GATACCAC	0.128
ACGAGCTC	-0.0241
GGTCGACA	-0.214
CATAGCAG	-0.297
AGGTCTAG	-0.241
AGATATAG	0.111
ACGCGAGT	-0.0922
AAGCAAAC	0.102
AGTTTTCA	-0.0566
AAGCTTCT	-0.197
AGGATGGG	-0.177
CACAAGAA	0.274
ATAGTGTA	0.0651
GGGATACC	-0.258
CAATGAAA	0.0497
CGTAGGGA	-0.051
AACTCAGC	-0.106
CCTCCCCA	-0.243
AACATTGC	0.0979

Sequence	PBM E-score
CGTTGGAA	0.0876
AGTAACCG	0.14
AACGTACC	-0.0951
AGCAAGGG	-0.0539
GAGCCGGA	0.0514
CTTTGTAA	0.155
AAAGAACG	0.106
ACGGACAG	0.00642
ACCATTCC	0.00123
GCGGATGA	0.0593
ACCAATCT	0.0622
CTGATGAC	-0.0444
AGGCGTTG	0.286
ACACCTCC	-0.145
GTGGATCA	-0.0762
ATACAATA	0.168
ACCCTCGC	-0.154
CATGAGAG	0.0402
AAAAAACG	0.162
CGCTAATC	-0.201
CCGTTAGC	0.0331
CAGATTCC	-0.0521

Sequence	PBM E-score
GGAATTTA	0.196
AACCTCCC	-0.156
CGGTGATA	-0.0197
CTATCGCC	0.0882
AAGCAACT	0.0616
AGTAGTTG	0.0992
CTGACCTC	-0.247
TACCGCGA	-0.00309
GTGAAAGA	0.102
AAATCGTG	0.133
GTAGGGCA	0.132
ATCCCTTG	-0.272
GAGATACC	-0.0407
CAAGGAAG	-0.014
GATGTCCA	0.106
TGAGTGAA	-0.131
CTTGTATC	-0.0147
GCCGGACC	-0.0277
AGGCAGCG	0.0789
ATCAGAAG	0.116
CACCTCAC	-0.122
CTTTTACA	0.205

Sequence	PBM E-score
ACCGTTGG	-0.28
CATTAGTC	0.0203
ACATGAGG	-0.058
CGAAAGAC	0.0303
GGTGTAAC	0.0929
ACGGCGCA	0.482
ATCCCACA	-0.223
ACGGGGTC	-0.00529
ATTCAGCC	0.0277
ATGCACGG	0.174
CCCACGGC	0.417
GAAAGAGC	-0.145
CCCAAACG	0.0228
GAATATGA	-0.0387
AGGGTCTA	-0.217
GCAGGCCA	-0.154
AACCTGAG	-0.2
CTCAACGC	-0.00714
CGAGGTAG	-0.373
AAATGACG	0.142
CATCTTAA	0.122
GCACCTCA	0.116

Sequence	PBM E-score
CGCTTCAG	-0.0874
CGCACCCA	-0.105
CAGCACGC	0.145
ATGATGAG	0.0238
ACAACGGC	0.308
GTCTACTA	-0.0766
AGTGCACC	-0.111
ACACACAG	0.0943
CATGCGGA	0.156
CCAGGATA	-0.00304
ACGTTATA	0.0885
AAGGGAGG	-0.206
CGTCGACG	-0.063
GTAGTTGA	-0.0461
AAGGCGGA	-0.099
ACAACCCA	0.0919
AGTGCATC	0.00327
TGAATACA	0.14
CATCAAGA	-0.0275
AACGTAAC	0.0571
AAAAGTCT	-0.166
